Test results published in article PMC4242493.
Some of the results follow. The list includes weakly bound sequences.

What follows are sequences tested against MaxL homodimer (UniProt P61244) (assay: universal protein-binding microarray (PBM)). Details: PBS-based mixture, 10 nM His-tagged protein dimer, 2% milk, 200 ng/uL BSA, 50 ng/uL salmon testes DNA, 0.02% TX-100; detection with Alexa 488 anti-His …; high values mean tight binding; most listed sequences are background and not binding sites; double strand, one strand shown.
Chain of UniProt P61244 (P61244 whole entry): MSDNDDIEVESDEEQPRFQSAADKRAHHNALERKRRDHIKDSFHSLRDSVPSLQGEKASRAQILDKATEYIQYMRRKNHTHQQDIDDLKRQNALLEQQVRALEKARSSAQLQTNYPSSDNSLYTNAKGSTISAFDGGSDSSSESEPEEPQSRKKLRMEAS

Sequence | binding signal (normalized occupancy)
AGACTAAC | 0.0681
CGACCTGA | 0.0681
CTGCTATA | 0.0783
CGGTTAAG | 0.074
CGACAACG | 0.076
ACGTGGCA | 0.106
GAGGTATA | 0.0827
ACTTTCGG | 0.074
GCGGCTAA | 0.0707
AGCGCGCA | 0.0759
AAGAGGAA | 0.0726
TAAGGCGA | 0.071
ACAGCAGG | 0.0789
AGACCCTA | 0.077
GCGCGTAA | 0.0693
ACGCAATA | 0.0791
ATCTGACC | 0.077
CGTGGCGA | 0.0802
AGTAAACG | 0.0757
GAAAAACC | 0.0722
AAGGCACA | 0.0777
ACGATATC | 0.0848
CAAGTCTA | 0.0723
ACTCCTGA | 0.0729
CCTCAAGC | 0.0684

Sequence | binding signal (normalized occupancy)
GGAAACCC | 0.073
CGTGGAAG | 0.0832
CGTCGATC | 0.0811
CGCACCCA | 0.0884
GAAGTCGC | 0.0706
AAGGACTT | 0.0685
ATTCCTTA | 0.0724
TGCGAAAA | 0.0775
ACGACCGC | 0.0723
ATAATAAT | 0.0821
AAAGTGCC | 0.0697
TAGTCCAA | 0.0694
TACTCAGA | 0.0681
CATCTGAA | 0.0795
GGGCACAA | 0.0742
GGTCGTCA | 0.0812
AATGACGT | 0.0758
AGGCGAGG | 0.0752
CACCTACA | 0.0819
ATAAAAAT | 0.0776
ATTATCGA | 0.0803
GACGACAC | 0.0774
ATGGAACC | 0.0764
ACGAGTGG | 0.0794
ATTGACGG | 0.0726

Sequence | binding signal (normalized occupancy)
AATAATGG | 0.0765
TCTGTCCA | 0.0754
AAGCAAGT | 0.0756
CGCATTTA | 0.0786
AACTCTCA | 0.074
AGACGCCC | 0.0726
AGGGCGAT | 0.0749
GAGTACTC | 0.0712
CGCAGAGA | 0.0699
TACAGGAA | 0.0731
ATAACAAT | 0.0814
GTGCTGTA | 0.0779
TAAACTTA | 0.0771
GAAATGAC | 0.0757
AGACACCA | 0.0749
GTTTGCAA | 0.0755
GATGCGTA | 0.0807
CCCCACCA | 0.0825
AAGTCAAA | 0.0697
AGTAACCG | 0.0699
GATCTGAA | 0.0712
GGACGGTA | 0.0722
GGTTAGAC | 0.0736
TACTAAGA | 0.0738
ACTCCAGA | 0.0722

Sequence | binding signal (normalized occupancy)
TCTCATAA | 0.0868
ATTTCAGG | 0.0722
TGCGCCCA | 0.0758
CTCAACAG | 0.0686
CAGGAGCC | 0.0659
GAGATCTC | 0.0803
GCTCGATA | 0.0734
CGCCAGCA | 0.0729
GAGTTTAA | 0.0756
TACCAGTA | 0.0728
GAGGATGA | 0.0805
ACGTGAGT | 0.0893
CGATACAG | 0.0757
TACGACTA | 0.0729
AAACTCGG | 0.0739
ATCGCGAA | 0.0663
AGTGCCGA | 0.0674
ACCCCGAC | 0.0726
GAGCTGGA | 0.0676
TGCTTAAA | 0.0691
AATCTCGC | 0.0755
AAAACCGT | 0.0751
ATCTCTGA | 0.0739
ATGTTTGC | 0.0794
AGGATGAG | 0.0759

Sequence | binding signal (normalized occupancy)
CTGGACAG | 0.0714
GATGCTAA | 0.0749
TTATCAAA | 0.0749
AGATAAAG | 0.0785
CAATCATG | 0.0934
TAGCGCTA | 0.0685
ACCCCGGA | 0.0778
ATTGGTAC | 0.0731
CGGATCCA | 0.0788
GGCTCCGA | 0.0697
AGCATTAC | 0.0776
AACAGTCA | 0.0748
CCTTGCCA | 0.0742
ACTGGGCG | 0.0763
GAGCCAAC | 0.0754
ACCGTATA | 0.0805
ATATGTTA | 0.0924
TCCGCCCA | 0.0771
GGTCCAAA | 0.0751
ACTGTAGG | 0.0763
CCACGTTC | 0.0913
AGCTTCCC | 0.0721
GCCGAGAA | 0.0694
CCCAAGTA | 0.0738
AGATGCAT | 0.0784

Sequence | binding signal (normalized occupancy)
ATGTAAGG | 0.0888
GCACCTGC | 0.0846
TACATAGA | 0.0824
CGTGCAAC | 0.0887
CATGATGG | 0.0946
TTAAGCAA | 0.073
CGTGAACG | 0.079
CTGAGGGC | 0.0664
GTAAAGCA | 0.0781
AATTTGCT | 0.0701
GCCAGCAC | 0.0723
CTTACATC | 0.0759
AACTATGT | 0.0762
GGCAGCCA | 0.0739
GCACCGCA | 0.0714
CTCCCAAA | 0.0695
ACCCCTGG | 0.0728
AACGGTAA | 0.0772
ACTGGTAC | 0.0756
CTTGAACA | 0.0715
GGTCACAC | 0.0831
CCTGGAGA | 0.0689
TCATTACA | 0.0825
CTAGCCGA | 0.0669
ACTCGACC | 0.0734

Sequence | binding signal (normalized occupancy)
AGATCGGG | 0.0711
TAGCTCCA | 0.0712
ATGGTGAC | 0.0841
GAAGAGTA | 0.0718
AAACCTTG | 0.0721
CACGGGTA | 0.0895
AGAGAAAA | 0.0707
AGCTCACA | 0.0815
ATGAGCAG | 0.081
CGCAGTAC | 0.0724
GCCGGGCC | 0.064
CTCTAAAA | 0.0687
TCGCTCCA | 0.0738
CTACCGTC | 0.0713
CAGAATGA | 0.0757
CCCGCAGA | 0.0735
GGGGAGTA | 0.0803
CGGCGCTA | 0.0673
GCGTAACC | 0.0809
CCGACCGG | 0.066
AAAGGTAA | 0.0723
ACATTAGC | 0.0803
